# Sequences with one replicate were seen in a single cluster, so their values are uncertain.
# System: ATP
# Test: switch fluorescence ratio, 500 uM ATP over buffer (Cy3 cluster intensity, sum of 5 cycles each) (fold (ratio)); higher = stronger signal-on switching upon ATP binding; sequences stand for … in TCGTCGGCAGCGTCAGATGTGTATAAGAGACAGTTTTTTTTTTTTTTTTTTTTTTTTT…TC
# Details: aptamer strand: ATP DNA aptamer (quencher-CACCTGGGGGAGTATTGCGGAGGAAGG + anchor), 100 nM annealed; ATP concentration: 500 uM; one replicate
# Outline: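 The fluorescence ratio divides summed target-cycle Cy3 intensity by summed buffer-cycle Cy3 intensity for each cluster and is averaged per switch-domain sequence. Cy3-labelled switching-strand clusters on a modified Illumina MiSeq flow-cell were annealed to 100 nM quencher-labelled ATP aptamer, then imaged in selection buffer and again after 15 min with 500 uM ATP at 22 °C. Five such cycles were run, with NaOH stripping and re-annealing between them, and clusters outside 100-1000 RFU were excluded.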
# 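Also: ATP exposure 15 min at 22 °C before imaging.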
row,Sequence,switch fluorescence ratio
1,TCCTTAATA,1.04
2,GTGGTGTGCG,0.941
3,TCGTTTTGGT,1.02
4,GACTTTTCTC,1.01
5,TTAGCAGGG,0.994
6,CACCTCTCGT,1.03
7,GAGTAAAAAT,1
8,ATTTGTTCGG,0.989
9,ACGGCGTAGC,1.04
10,CTTCTAGCAT,1.73
11,CGAGGCGTTC,1.85
12,TTCGGTGTTC,1.03
13,CTGGTTTGGC,0.977
14,ACAGAAAAAT,0.995
15,CAGGGAACTT,1.02
16,CACCGTCGTC,0.986
17,AATAAACGTT,1.06
18,AGACAATGTT,1
19,CCCCAGCGCC,1.82
20,CAGGTGCGAC,1.24
21,CTTGGGTGTC,1.03
22,CATATATGAG,1.02
23,ATCGTATTAT,1.01
24,AGCGCCGGCG,0.996
25,AGATGCCACC,1.06
26,CTGCCAGGCA,1.04

row,Sequence,switch fluorescence ratio
1,TCGTGCTTGT,0.995
2,TCAGCGG,1.03
3,CAGTTGGGGC,0.998
4,AATAGATGAA,0.983
5,ATTGTCGTAA,1.02
6,CAAAGGGGGC,1.03
7,ATTAGATAGC,0.943
8,CTGGGGTCTC,0.975
9,GGTTTACAG,1.06
10,AGTCTGAACA,0.981
11,ACTTTGCGTA,1.01
12,GGGCGTAGCG,1.07
13,TTAAGAAAAT,0.993
14,GACTTCGCTG,1.25
15,AAAAATCTCC,1.06
16,TACAGATCGT,0.959
17,CATTGTTGGG,0.982
18,TTGCCGCCCC,1.12
19,TCGCTCTTAC,3.14
20,GATGCCTTGG,0.997
21,GCAGCGGATT,1
22,AGCACGACTT,1.04
23,TCAATCTAAT,0.958
24,GCAATGGACT,1.29
25,GGGATCTGGA,1.07
26,TCGCAGAAGT,0.951

row,Sequence,switch fluorescence ratio
1,CGGCCCTGTA,1.05
2,GAGACATGAT,1.05
3,CCCGGTAGCA,1.25
4,TTGCCACTGG,1.16
5,CCCGTTAAGG,1.05
6,CTTGAGGACG,1.14
7,ATGTCAGCTG,1.03
8,TATCTGCTGC,1.09
9,GATATGCC,0.988
10,TTAGTTCTGT,0.991
11,GTCAATAAAG,0.999
12,GCAATTGGG,1.11
13,GACTTTTCAG,1.03
14,GCAAGTTATG,1.03
15,ACCGGATGCA,0.962
16,ATGGTGCTAG,0.987
17,GATCTACAGA,1.02
18,AAAGGGTCCT,1.07
19,TTAGGTGA,1.05
20,AAATAGTA,1
21,ACACTCCAGC,1.17
22,AAGATTATAA,1.01
23,GATCAATGTC,0.995
24,CTCGGCTACA,1.54
25,ATCGTTTC,0.999
26,GGCGTGAGTA,1.02

row,Sequence,switch fluorescence ratio
1,TAGAAGTTCG,0.956
2,TTCTATAGGC,1
3,AGCGTTCGGT,0.943
4,AAAAGGGTTT,0.986
5,AGTGGGCCGT,0.994
6,GCAGTCAGCA,1.03
7,TCTCCAGTG,2.36
8,AGACGGCTCG,0.964
9,TACAAAACTC,1.05
10,ACCCGTGGAC,1.79
11,GAGCTGGGAC,1.06
12,ACAATGAGGC,1.04
13,TGGGGGCG,1
14,CCACAAATTC,1.36
15,TTCGAAATCA,1.15
16,TTTACGTGCT,1.08
17,AGTGGACGG,0.965
18,AGGTATCATT,0.966
19,GGACAATGAA,1.02
20,GAGTTAACGC,1.06
21,TGTGACGATA,1.05
22,ATTCTTGGTG,0.989
23,CTAGTGTGCT,1.03
24,TTGTTACCGT,0.988
25,GTTTGTACGG,1.04
26,GGCCCCCCAC,1

row,Sequence,switch fluorescence ratio
1,GTTTCTTTAG,0.995
2,TCGAGCGTCG,0.944
3,TTGTGTGC,0.975
4,TTGGATGCG,0.978
5,ATACACAGA,1.06
6,GACACAGGGC,1.21
7,CGGGTGGAAA,1.05
8,CGAATGGCTT,1.12
9,GTTCCATTAG,1.03
10,CTGTGTGGGT,0.985
11,GGGCCGTAT,1.05
12,TTGAAACAAT,1.04
13,TATTTACTTG,1.01
14,CACTCGCTGC,2.15
15,TCGGATCTAG,1.01
16,TGAACGCGTG,0.991
17,AAGTGCTTCA,1
18,CATTACCCTC,1
19,TCGTGGTTTT,0.974
20,GCCCGACCGC,1.95
21,CAATTTTTCC,1.08
22,ATGGGCGCCG,0.998
23,GTCTTATAGG,0.956
24,CTTGTTCAC,0.983
25,CGCCAGCTGG,0.986
26,GTTCAAGTGC,0.982

row,Sequence,switch fluorescence ratio
1,AGGTGAGGTT,1.03
2,ATAGCCGGGC,1.01
3,TAGTTATGCG,1.05
4,ATGTACGTGC,1.01
5,TGTAACTTGA,0.995
6,TGTCTGTTA,1.07
7,GGTTTCTAAC,0.96
8,TTGAGGCATT,2.32
9,TCGTAGTTCT,0.946
10,GAAGTATCAT,1.02
11,TTGGATGGAG,0.938
12,AATTCGTACC,1.16
13,CGTGTTTAAG,1.04
14,TGCGGGATAG,1.07
15,CTTAGTTACT,1.02
16,AGGGAATGGC,1.06
17,TAGTTTTGTT,1.02
18,ATCCAGGGCT,1.01
19,GGGTGTAAGC,0.942
20,CGACATGAGC,1.06
21,ATTCCTAAGT,0.989
22,TGGGGCCGTC,0.989
23,TAGAGCCTTG,0.968
24,TTTATCCGAA,1.04
25,CGGCCCGCAG,1.62
26,CTAAGGGG,0.987

row,Sequence,switch fluorescence ratio
1,GTTTTTAACC,0.978
2,AAAGCCGCAA,2.64
3,TTTACTCTTA,1.02
4,CAGTGTAATG,0.994
5,GGGCGTAACG,0.98
6,GAGCCATCAC,1.02
7,AAATCATACA,1.05
8,AGTGATGTGC,0.983
9,GGTGAGCCGT,0.866
10,ATAAATGCGC,1.01
11,ACTGACTAGG,0.983
12,GGGACCGTTA,0.977
13,GAATAAGGAT,1.02
14,GTAACGCGAG,1.01
15,TCCTACTGGA,0.924
16,CCGAGCTTGG,1.24
17,TTTCAGTAAC,0.988
18,AACAGGGCCG,1.08
19,AGTCAGTTCG,0.988
20,TTGTAATGTA,0.949
21,TCGACTTTGA,0.978
22,TCAAAGCCGG,1
23,GGTTTAGCGT,0.972
24,GTGCGTACGT,1.03
25,CGTTTTCCTC,0.91
26,CAACTGCCGG,1.05

row,Sequence,switch fluorescence ratio
1,CACGTGACGG,1.19
2,CTTGGTATTT,0.984
3,AAATTCTGAA,1
4,GTTGGGGACT,1.03
5,CGCCCTTGTT,1.03
6,CAAGTGGGCA,0.966
7,GAATGCTGGG,1.03
8,TAGCGCTTCG,1.02
9,GGGGAGCCAT,1.02
10,GCGCTGTGGG,1.03
11,ATGACATGCA,1.02
12,CCCTATTGAG,0.998
13,GAATGAGTCA,0.976
14,GGGTATAGAG,1.01
15,CTTCGTCTCC,1.57
16,TATAGAACGT,0.986
17,TTACCAGACC,1.12
18,GATTGAAAAA,1.01
19,GGGGACGCTA,1.06

# Reference: the supplement of paper PMC10126150
